# In all, about 310,000 compounds went through this assay and about 14,000 (4.5%) showed an effect of 50% or more. Effects have a minus sign here. The list shows a part of the results.
# Target: human ether-à-go-go-related gene (hERG) potassium channel (human, UniProt Q12809)
# Experiment: primary screen, population patch clamp on CHO cells stably expressing hERG
# 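Also: peak tail current of the secondary pulse compared with the same well before compound.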
# human ether-à-go-go-related gene (hERG) potassium channel, sequence (Q12809 whole entry, looked up): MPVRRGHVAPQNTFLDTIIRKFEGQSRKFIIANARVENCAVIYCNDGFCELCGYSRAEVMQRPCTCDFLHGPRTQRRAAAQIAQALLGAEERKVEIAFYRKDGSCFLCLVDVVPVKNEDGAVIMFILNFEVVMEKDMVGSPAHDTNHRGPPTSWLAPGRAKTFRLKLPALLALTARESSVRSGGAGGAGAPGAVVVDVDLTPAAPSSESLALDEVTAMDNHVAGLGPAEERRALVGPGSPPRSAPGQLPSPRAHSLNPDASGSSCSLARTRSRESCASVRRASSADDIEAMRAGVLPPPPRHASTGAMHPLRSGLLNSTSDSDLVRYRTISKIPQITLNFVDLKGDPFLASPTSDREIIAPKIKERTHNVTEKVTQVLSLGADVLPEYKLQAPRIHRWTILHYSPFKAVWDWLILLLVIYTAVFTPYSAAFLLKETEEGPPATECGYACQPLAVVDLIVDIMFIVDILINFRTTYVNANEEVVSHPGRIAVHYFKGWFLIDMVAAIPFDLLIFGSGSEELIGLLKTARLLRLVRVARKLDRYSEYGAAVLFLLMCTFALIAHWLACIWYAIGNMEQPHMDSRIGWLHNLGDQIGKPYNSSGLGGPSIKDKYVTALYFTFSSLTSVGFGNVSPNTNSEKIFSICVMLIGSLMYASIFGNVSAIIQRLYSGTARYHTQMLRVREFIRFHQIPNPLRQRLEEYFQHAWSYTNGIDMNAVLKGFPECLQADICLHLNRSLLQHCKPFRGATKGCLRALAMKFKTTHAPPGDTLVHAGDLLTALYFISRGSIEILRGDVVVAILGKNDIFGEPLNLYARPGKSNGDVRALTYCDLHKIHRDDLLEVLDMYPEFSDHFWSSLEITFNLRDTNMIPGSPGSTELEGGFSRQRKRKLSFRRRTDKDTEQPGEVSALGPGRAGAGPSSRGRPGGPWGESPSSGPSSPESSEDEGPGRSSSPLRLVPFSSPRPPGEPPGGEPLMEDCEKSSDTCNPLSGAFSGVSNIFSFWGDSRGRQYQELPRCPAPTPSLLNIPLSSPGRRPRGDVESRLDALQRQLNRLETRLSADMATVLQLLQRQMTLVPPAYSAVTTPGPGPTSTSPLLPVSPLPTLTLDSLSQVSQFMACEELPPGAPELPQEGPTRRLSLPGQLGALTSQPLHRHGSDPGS
row,Structure (SMILES),"hERG current change (%, negative = inhibition) at 10uM [%]"
1,O=C(Nc1nncs1)c1cc2c(s1)CCC2,27.4
2,CCN(CC(=O)Nc1ccc2c(c1)OCCO2)C(=O)CC1CCCC1,0.281
3,COc1ccccc1C(=O)NCC(=O)OC(C)C(=O)NC1CCCCC1C (stereo not shown),-1.56
4,COc1ccccc1C1CCN(c2ccc([N+](=O)[O-])cn2)CC1,-5.84
5,O=C(COc1ncnc2cc([N+](=O)[O-])ccc12)NC1CCCCC1,-2.76
6,COc1ccc(NC(=O)c2ccco2)cc1NC(=O)c1ccccc1F,25.6
7,CNc1nc(N)c([N+](=O)[O-])c(NCCO)n1,13.5
8,CCOC(=O)c1c(C)oc2cc(Br)c(OC)cc12,4.28
9,CSc1ccccc1NC(=O)CNCCCN1CCOCC1.O=C(O)C(=O)O,4.74
10,C/C(CC(=O)NCc1ccco1)=N\NC(=O)Cc1ccc(-c2ccccc2)cc1,5.55
11,Cn1c(CN2CCN(C(=O)c3ccccc3)CC2)nc2cc([N+](=O)[O-])ccc21,-67.3
12,COc1ccc(NC2=C(NCCO)C(=O)c3ccccc3C2=O)cc1,3.51
13,CC(C)(C)C1CCC(C(=O)Nc2ccccc2)CC1 (stereo not shown),-1.77
14,CC(C)(C)NCc1cccn1-c1sc2c(c1C#N)CCCC2,-13.4
15,COCCCOc1ccnc(CS(=O)c2nc3ccccc3[n-]2)c1C.[Na+] (stereo not shown),-1.59
16,CCCSc1nc(O)c(C(c2ccc(OC)c(O)c2)c2c(O)nc(SCCC)n(C)c2=O)c(=O)n1C,-24.6
17,CC(C)Nc1ncnc2c1cnn2Cc1ccc(Cl)cc1,-18.5
18,N#CCSc1nnc(C2CCCCC2)n1Cc1ccccc1,-11.6
19,N#C/C(=C\c1ccc(OCc2ccccc2)cc1)C(N)=O,-11.1
20,O=c1c2cc(NC(=S)NC3CCCCC3)ccc2nc2n1CCCCC2,-70.2
21,CCN(C(=O)Cn1cnc2ccccc2c1=O)C1CCS(=O)(=O)C1 (stereo not shown),3.34
22,Cc1nc([N+](=O)[O-])cn1CC(O)c1ccccc1 (stereo not shown),10.2

row,Structure (SMILES),"hERG current change (%, negative = inhibition) at 10uM [%]"
1,CCOC(=O)c1cnn(C)c1NC(=O)c1ccc(Cl)cc1Cl,-24.5
2,CCOc1ccccc1NC(=O)C(NCCN(C)C)c1ccccc1.O=C(O)C(=O)O (stereo not shown),-76.4
3,O=C(Cn1c2c(c(-c3ccccc3)cc1=O)CCCC2)N1CCCCCC1,-0.417
4,Cc1ccc(S(=O)(=O)N(C)CC(=O)NCC(c2ccc(F)cc2)N2CCOCC2)cc1 (stereo not shown),-27
5,Cc1cccc(C(=S)N2CCOCC2)n1,5.42
6,Oc1ccc(Cl)cc1CN1CCN(Cc2ccccc2)CC1,-35.6
7,COc1ccccc1CC(=O)Nc1ccc(S(=O)(=O)N2CCN(C)CC2)cc1,14.4
8,COc1ccc(Br)cc1S(=O)(=O)NCCN1CCOCC1,11.9
9,Cn1c(SCc2cnc(-c3ccccc3)s2)nnc1C1COc2ccccc2O1 (stereo not shown),-1.06
10,COCCN(C(=O)c1ccc(NC2CC2)c([N+](=O)[O-])c1)c1c(N)n(CC(C)C)c(=O)[nH]c1=O,-5.42
11,COc1ccc(OCC(=O)Nc2cc(NC(=O)c3ccco3)ccc2OC)cc1,5.23
12,Cn1nnc2cc(C(=O)NC(C)(C)C)ccc21,3.28
13,COc1cccc(N2CCN(c3ccc4nnc(CCC(=O)N5CCN(C)CC5)n4n3)CC2)c1,-1.62
14,CCC(C)c1ccc(NC(=S)NCc2cccnc2)cc1 (stereo not shown),-18.9
15,Br.Oc1ccc(C2CNCCc3c2cc(O)c(O)c3Cl)cc1 (stereo not shown),-3.12
16,Cc1ccc(-n2nc3c(=O)n(CCCC(=O)NCc4ccccc4Cl)nc(C)c3c2C)cc1,-5.89
17,CCCc1cc(=O)oc2cc(OCC(=O)NCCCn3ccnc3)c(Cl)cc12,-72.3
18,Cc1ccc(C(=O)NCc2ccc3c(c2)OCO3)cc1N1CCCC1=O,-3.82
19,CC1Cc2nc(SCC(N)=O)n(C)c(=O)c2S1 (stereo not shown),-9.86
20,COC(=O)c1cccc(NC(=O)C2C3CCC(C3)C2C(=O)O)c1 (stereo not shown),-10
21,CN(C)S(=O)(=O)c1cccc(C(=O)NC2CCSc3ccccc32)c1 (stereo not shown),-5.74
22,Cc1ccc(/C=N/n2c(C3CCCCC3)n[nH]c2=S)o1,12.1

row,Structure (SMILES),"hERG current change (%, negative = inhibition) at 10uM [%]"
1,Fc1ccccc1NC(=S)NN(Cc1ccccc1)c1ccccc1,-13.9
2,Cc1ccc(OCC(=O)Nc2cc(-c3nn4c(C)nnc4s3)ccc2C)cc1,-24.7
3,Cc1cccnc1NC(=O)C1CCCN1S(=O)(=O)c1ccc(Cl)cc1 (stereo not shown),-1.03
4,Cc1onc(-c2ccccc2)c1C(=O)Nc1ccccc1N1CCOCC1,-33.2
5,O=S1(=O)N=C(N2CCOCC2)c2ccccc21,-3.93
6,COc1cccc(N2C(=O)CC(NNc3nc4ccccc4s3)C2=O)c1 (stereo not shown),-1.73
7,C=C1[C@H]2CC[C@H]3[C@]4(C)C[C@H](O[C@H]5O[C@H](CO)[C@@H](OS(=O)(=O)[O-])[C@H](OS(=O)(=O)[O-])[C@H]5OC(=O)CC(C)C)C[C@@H](C(=O)O)[C@H]4CC[C@]3(C2)[C@H]1O.[K+],13.4
8,O=C(CN1C(=O)CSC1=O)N1CCCCC1,-1.04
9,Cc1ccc(CNCCNCCO)s1.Cl,0.854
10,CCCCNc1c(-c2ccc(SC3CCCCC3)cc2)nc2ccccn12.O=C(O)C(F)(F)F,-6.31
11,Cc1c(CC(=O)O)c(=O)oc2c(C)c3occ(-c4ccc(Br)cc4)c3cc12,15.1
12,CC(NC(=O)C(=O)NN=C1CCC(C(C)(C)C)CC1)c1ccccc1 (stereo not shown),-21.4
13,O=S(=O)(Nc1cccc(-c2cn3cccnc3n2)c1)c1ccc(-c2ccccc2)cc1,-3.18
14,COc1ccc(OC)c(S(=O)(=O)NCCC2=CCCCC2)c1,-0.427
15,O=C(CSc1nnc(NC(=O)c2ccco2)s1)NCc1ccc2c(c1)OCO2,17.5
16,COc1ccc2c(c1)c(=O)oc1cc(OCC(=O)NC3CC3)ccc12,13.2
17,CC(C)Sc1nc2c(c(=O)[nH]1)C(c1cccs1)C1=C(CC(C)(C)CC1=O)N2 (stereo not shown),-11.3
18,CC(=O)c1cccc(OCc2cc(C(=O)NC3CCN(Cc4ccccc4)CC3)no2)c1,-62.9
19,COc1cccc(CNC(=O)Cc2ccc(S(=O)(=O)N3CCOCC3)s2)c1,4.9
20,COc1cc(C)nc(Nc2nc(C)c(C(C)=O)s2)n1,15.9
21,Cc1cccc(NC(=O)CSc2nc(-c3ccccc3)c(C#N)c(=O)[nH]2)c1C,-8.39
22,COc1cccc(C(=O)NNC(=O)/C=C/c2ccccc2)c1,17.7

row,Structure (SMILES),"hERG current change (%, negative = inhibition) at 10uM [%]"
1,CN(C1CCCCC1)S(=O)(=O)c1ccc(NC(=O)C2CCCCC2C(=O)O)cc1 (stereo not shown),3.45
2,O=C(Cn1cnc2cc([N+](=O)[O-])ccc2c1=O)NC(c1ccccc1)c1ccccc1,5.36
3,CCN(CC)S(=O)(=O)c1ccc(N2CCCC2)c(NC(=O)Cc2ccccc2)c1,-19.9
4,Cc1ccc(S(=O)(=O)N2CCN(C(=O)CN3CCN(C)CC3)C2)cc1,14.1
5,Cc1nc2nc(C)c(CCC(=O)NC(C)c3ccc4c(c3)OCCO4)c(C)n2n1.Cl (stereo not shown),12.7
6,COc1cc(CNC2CCCC2)cc(OC)c1,12
7,Nc1c(C(=O)Nc2ccc3c(c2)OCCO3)nnn1Cc1ccc(Cl)cc1,-2.19
8,CCOc1ccc(Cl)cc1S(=O)(=O)N1CCC(C(=O)NCC2CCCO2)CC1 (stereo not shown),-2.63
9,COc1ccc(CSCCNC(=S)Nc2ccccc2)cc1Cl,16.3
10,O=C(Nc1ccc(N2CCOCC2)cc1Cl)C1CCN(C(=O)OCc2ccccc2)CC1,-32.1
11,CCOCCCNCc1ccc(Cl)cc1,-13.7
12,C/C(=N/OC(=O)c1ccc(Cl)cc1Cl)c1oc(C)nc1C,6.42
13,O=C(c1cc(-c2ccc(Cl)s2)nc2ccccc12)N1CCCC1,4.92
14,Cc1ccc(C(=O)CC2(O)C(=O)N(CCc3ccccc3)c3ccc(Br)cc32)o1 (stereo not shown),-26.1
15,COc1ccc(/C=N/NC(=S)NCC2CCCO2)cc1 (stereo not shown),6.97
16,Cc1ccc(-c2ccc(OC(=O)c3ccc(=O)[nH]c3)c(C)c2)cc1,17.8
17,CCc1cccc(C)c1N(C(=O)Cn1c(=O)[nH]c2ccccc21)C(C)COC (stereo not shown),-4.31
18,O=C1NC(=S)N/C1=C/c1cccn1-c1ccc([N+](=O)[O-])cc1,12.8
19,COc1ccccc1N=C1NC(=O)/C(=C/c2ccc(N(C)C)cc2)S1,10.5
20,O=C(c1ccco1)N1CCN(C(=S)NC2CC3CCC2C3)CC1 (stereo not shown),-67.3
21,FC(F)(F)c1cccnc1N1CCN(c2ncnc3nc[nH]c23)CC1,4.69
22,CCOc1ccc(CNC(=O)CCCn2nc(CC)n3c(cc4occc43)c2=O)cc1,-24.7
